Target: T1, Recombinant Ad2 penton base (adenovirus type 2 (Ad2), UniProt P03276)
T1 construct: also called penton base protein
Assay: ELISA, immobilized penton base

B1: DT bifunctional signaling antibody (DAV-1 fused to TNF-alpha) (bispecific antibody)
heavy: EVQLQQSGPELVKPGASVKISCKASGYTFTDYNMHWVKQSHGKSLEWIGYIYPYKGGTGYNQKFKSKATLTTDSSSNTAYMELRSLTSDASAVYYCARGIAYWGQGTLVTVSAAKTTPPSVYPLAPGSAAQTNSMVTLGCLVKGYFPEPVTVTWNSGSLSSGVHTFPAVLQSDLYTLSSSVTVPSSTWPSETVTCNVAHPASSTKVDKKIVPRDCGCKPCICTVPEVSSVFIFPPKPKDVLTITLTPKVTCVVVDISKDDPEVQFSWFVDDVEVHTAQTQPREEQFNSTFRSVSELPIMHQDWLNGKEFKCRVNSAAFPAPIEKTISKTKGRPKAPQVYTIPPPKEQMAKDKVSLTCMITDFFPEDITVEWQWNGQPAENYKNTQPIMDTDGSYFVYSKLNVQKSNWEAGNTFICSVLHEF[skipping about 150 residues]
light: DIVLTQSPASLAVSLGQRATISCKASQSVDYDGDSYMNWYQQKPGQPPKLLIYAASNLESGIPARFSGSGSGTDFTLNIHPVEEEDAATYYCQQTNEDPWTFGGGTKLEIKRADAAPTVSIFPPSSEQLTSGGASVVCFLNNFYPKDINVKWKIDGSERQNGVLNSWTDQDSKDSTYSMSSTLTLTKDEYERHNSYTCEATHKTSTSPIVKSFNRNEC
notes: Secreted from SF9 insect cells and purified on Protein L; also called DT molecule; DAV-TNF
binding result: binds
